In patent publication US20140031278A1, “Novel Glucagon Analogues” (NOVO NORDISK A/S, priority 2011, published 2014):
At least one structure is not confirmed: it was looked up by name or label, or the drawing left a doubt. *1 amine or outer side, *2 acyl side, *3 side chain or, on linkers, in order; H or OH if unused. Where a SMILES comes first, the peptide text is derived from it. Side-chain parts run from the residue outwards. The star is where a group is joined. γGlu = O=C(O)[C@H](CCC(=O)[*:2])N[*:1]; εLys = N[C@@H](CCCCN[*:1])C(=O)[*:2]; Suc = O=C(CCC(=O)[*:2])[*:1]; Pentanoyl = CCCCC(=O)*; Butyryl = CCCC(=O)*

Test: ThT fibrillation assay for physical stability (lag time, recovery)
Format: physicochemical
Details: for ThT assay [Lag time]: absence of increased ThT fluorescence noted as lag time of 45 hours; for ThT assay [Recovery]: peptide concentration in filtered supernatant after ThT assay as percentage of initial

| SMILES | ThT assay [Lag time] [h] | ThT assay [Recovery] [%] |
| --- | --- | --- |
| CC(=O)N[C@@H](CCC(=O)N[C@@H](CCC(=O)N[C@@H](CCC(=O)N[C@@H](CCC(=O)NCCCC[C@H](NC(=O)[C@@H](NC(=O)[C@H](Cc1ccccc1)NC(=O)[C@H](CC(=O)O)NC(=O)[C@H](CCC(=O)O)NC(=O)[C@H](C)NC(=O)[C@H](CCCNC(=N)N)NC(=O)[C@H](CCCNC(=N)N)NC(=O)[C@H](CC(C)C)NC(=O)[C@H](CC(=O)O)NC(=O)[C@H](CC(C)C)NC(=O)[C@H](Cc1ccc(O)cc1)NC(=O)[C@H](CCCNC(=N)N)NC(=O)[C@H](CO)NC(=O)[C@H](Cc1ccc(O)cc1)NC(=O)[C@H](CC(=O)O)NC(=O)[C@H](CO)NC(=O)[C@@H](NC(=O)[C@H](Cc1ccccc1)NC(=O)[C@@H](NC(=O)CNC(=O)[C@H](CCC(N)=O)NC(=O)[C@H](CO)NC(=O)[C@@H](N)Cc1c[nH]cn1)[C@@H](C)O)[C@@H](C)O)C(C)C)C(=O)N[C@@H](Cc1c[nH]c2ccccc12)C(=O)N[C@@H](CC(C)C)C(=O)N[C@@H](CC(C)C)C(=O)N[C@@H](CO)C(=O)N[C@H](C(=O)O)[C@@H](C)O)C(=O)O)C(=O)O)C(=O)O)C(=O)O [Example 57, N^ε24-[(4S)-4-[[(4S)-4-[[(4S)-4-[[(4S)-4-acetamido-4-carboxybutanoyl]amino]-4-carboxybutanoyl]amino]-4-carboxybutanoyl]amino]-4-carboxybutanoyl]-[Arg^12,Leu^16,Glu^20,Lys^24,Leu^27,Ser^28]-Glucagon] (H-HSQGTFTSDYSRYLDLRRAEDFVK([γGlu-γGlu-γGlu-γGlu-Ac])WLLST-OH) | 45 | 100 |
| CC(=O)N[C@@H](CCC(=O)N[C@@H](CCC(=O)N[C@@H](CCC(=O)N[C@@H](CCC(=O)NCCCC[C@H](N)C(=O)NCCCC[C@H](NC(=O)[C@H](CC(=O)O)NC(=O)[C@H](CC(C)C)NC(=O)[C@H](Cc1ccc(O)cc1)NC(=O)[C@H](CCCCN)NC(=O)[C@H](CO)NC(=O)[C@H](Cc1ccc(O)cc1)NC(=O)[C@H](CC(=O)O)NC(=O)[C@H](CO)NC(=O)[C@@H](NC(=O)[C@H](Cc1ccccc1)NC(=O)[C@@H](NC(=O)CNC(=O)[C@H](CCC(N)=O)NC(=O)[C@H](CO)NC(=O)[C@@H](N)Cc1c[nH]cn1)[C@@H](C)O)[C@@H](C)O)C(=O)N[C@@H](CCCNC(=N)N)C(=O)N[C@@H](C)C(=O)N[C@@H](C)C(=O)N[C@@H](CCC(N)=O)C(=O)N[C@@H](CC(=O)O)C(=O)N[C@@H](Cc1ccccc1)C(=O)N[C@H](C(=O)N[C@@H](CCC(N)=O)C(=O)N[C@@H](Cc1c[nH]c2ccccc12)C(=O)N[C@@H](CC(C)C)C(=O)N[C@@H](CC(C)C)C(=O)N[C@@H](CO)C(=O)N[C@H](C(N)=O)[C@@H](C)O)C(C)C)C(=O)O)C(=O)O)C(=O)O)C(=O)O [Example 59] (H-HSQGTFTSDYSKYLDK([εLys-γGlu-γGlu-γGlu-γGlu-Ac])RAAQDFVQWLLST-NH2) | 45 | 96 |
| CC(=O)N[C@@H](CCC(=O)N[C@@H](CCC(=O)N[C@@H](CCC(=O)N[C@@H](CCC(=O)NCCCC[C@H](NC(=O)[C@@H](NC(=O)[C@H](Cc1ccccc1)NC(=O)[C@H](CC(=O)O)NC(=O)[C@H](C)NC(=O)[C@H](C)NC(=O)[C@H](CCCNC(=N)N)NC(=O)[C@H](CCCNC(=N)N)NC(=O)[C@H](CC(C)C)NC(=O)[C@H](CC(=O)O)NC(=O)[C@H](CC(C)C)NC(=O)[C@H](Cc1ccc(O)cc1)NC(=O)[C@H](CCCCN)NC(=O)[C@H](CO)NC(=O)[C@@H](NC(=O)[C@H](CC(=O)O)NC(=O)[C@H](CO)NC(=O)[C@@H](NC(=O)[C@H](Cc1ccccc1)NC(=O)[C@@H](NC(=O)CNC(=O)[C@H](Cc1c[nH]cn1)NC(=O)[C@H](C)NC(=O)[C@@H](N)Cc1c[nH]cn1)[C@@H](C)O)[C@@H](C)O)C(C)C)C(C)C)C(=O)N[C@@H](Cc1c[nH]c2ccccc12)C(=O)N[C@@H](CC(C)C)C(=O)N[C@@H](CC(C)C)C(=O)N[C@@H](CO)C(=O)N[C@H](C(=O)O)[C@@H](C)O)C(=O)O)C(=O)O)C(=O)O)C(=O)O [Example 62, N^ε24-[(4S)-4-[[(4S)-4-[[(4S)-4-[[(4S)-4-acetamido-4-carboxybutanoyl]amino]-4-carboxybutanoyl]amino]-4-carboxybutanoyl]amino]-4-carboxybutanoyl]-[Ala^2,His^3,Val^10,Leu^16,Ala^20,Lys^24,Leu^27,Ser^28]-Glucagon] (H-HAHGTFTSDVSKYLDLRRAADFVK([γGlu-γGlu-γGlu-γGlu-Ac])WLLST-OH) | 45 | 100 |
| CCCC(=O)N[C@@H](CCC(=O)N[C@@H](CCC(=O)N[C@@H](CCC(=O)N[C@@H](CCC(=O)NCCCC[C@H](NC(=O)[C@@H](NC(=O)[C@H](Cc1ccccc1)NC(=O)[C@H](CC(=O)O)NC(=O)[C@H](C)NC(=O)[C@H](C)NC(=O)[C@H](CCCNC(=N)N)NC(=O)[C@H](CCCNC(=N)N)NC(=O)[C@H](CC(C)C)NC(=O)[C@H](CC(=O)O)NC(=O)[C@H](CC(C)C)NC(=O)[C@H](Cc1ccc(O)cc1)NC(=O)[C@H](CCCNC(=N)N)NC(=O)[C@H](CO)NC(=O)[C@H](Cc1ccc(O)cc1)NC(=O)[C@H](CC(=O)O)NC(=O)[C@H](CO)NC(=O)[C@@H](NC(=O)[C@H](Cc1ccccc1)NC(=O)[C@@H](NC(=O)CNC(=O)[C@H](CCC(N)=O)NC(=O)[C@H](CO)NC(=O)[C@@H](N)Cc1c[nH]cn1)[C@@H](C)O)[C@@H](C)O)C(C)C)C(=O)N[C@@H](Cc1c[nH]c2ccccc12)C(=O)N[C@@H](CC(C)C)C(=O)N[C@@H](CC(C)C)C(=O)N[C@@H](CO)C(=O)N[C@H](C(=O)O)[C@@H](C)O)C(=O)O)C(=O)O)C(=O)O)C(=O)O [Example 65, N^ε24-[(4S)-4-[[(4S)-4-[[(4S)-4-[[(4S)-4-(butanoylamino)-4-carboxybutanoyl]amino]-4-carboxybutanoyl]amino]-4-carboxybutanoyl]amino]-4-carboxybutanoyl]-[Arg^12,Leu^16,Ala^20,Lys^24,Leu^27,Ser^28]-Glucagon] (H-HSQGTFTSDYSRYLDLRRAADFVK([γGlu-γGlu-γGlu-γGlu-Butyryl])WLLST-OH) | 45 | 104 |
| CC(C)C[C@H](NC(=O)[C@H](CC(=O)O)NC(=O)[C@H](CC(C)C)NC(=O)[C@H](Cc1ccc(O)cc1)NC(=O)[C@H](CCCNC(=N)N)NC(=O)[C@H](CO)NC(=O)[C@H](Cc1ccc(O)cc1)NC(=O)[C@H](CC(=O)O)NC(=O)[C@H](CO)NC(=O)[C@@H](NC(=O)[C@H](Cc1ccccc1)NC(=O)[C@@H](NC(=O)CNC(=O)[C@H](CCC(N)=O)NC(=O)[C@H](CO)NC(=O)[C@@H](N)Cc1c[nH]cn1)[C@@H](C)O)[C@@H](C)O)C(=O)N[C@@H](CCCNC(=N)N)C(=O)N[C@@H](CCCNC(=N)N)C(=O)N[C@@H](C)C(=O)N[C@@H](C)C(=O)N[C@@H](CC(=O)O)C(=O)N[C@@H](Cc1ccccc1)C(=O)N[C@H](C(=O)N[C@@H](CCCCNC(=O)CC[C@H](NC(=O)CC[C@H](NC(=O)CC[C@H](NC(=O)CC[C@H](NC(=O)CCC(=O)O)C(=O)O)C(=O)O)C(=O)O)C(=O)O)C(=O)N[C@@H](Cc1c[nH]c2ccccc12)C(=O)N[C@@H](CC(C)C)C(=O)N[C@@H](CC(C)C)C(=O)N[C@@H](CO)C(=O)N[C@H](C(=O)O)[C@@H](C)O)C(C)C [Example 66, N^ε24-[(4S)-4-carboxy-4-[[(4S)-4-carboxy-4-[[(4S)-4-carboxy-4-[[(4S)-4-carboxy-4-(3-carboxypropanoylamino)butanoyl]amino]butanoyl]amino]butanoyl]amino]butanoyl]-[Arg^12,Leu^16,Ala^20,Lys^24,Leu^27,Ser^28]-Glucagon] (H-HSQGTFTSDYSRYLDLRRAADFVK([γGlu-γGlu-γGlu-γGlu-Suc])WLLST-OH) | 45 | 104 |
| CCCCC(=O)N[C@@H](CCC(=O)N[C@@H](CCC(=O)N[C@@H](CCC(=O)N[C@@H](CCC(=O)NCCCC[C@H](NC(=O)[C@@H](NC(=O)[C@H](Cc1ccccc1)NC(=O)[C@H](CC(=O)O)NC(=O)[C@H](C)NC(=O)[C@H](C)NC(=O)[C@H](CCCNC(=N)N)NC(=O)[C@H](CCCNC(=N)N)NC(=O)[C@H](CC(C)C)NC(=O)[C@H](CC(=O)O)NC(=O)[C@H](CC(C)C)NC(=O)[C@H](Cc1ccc(O)cc1)NC(=O)[C@H](CCCNC(=N)N)NC(=O)[C@H](CO)NC(=O)[C@H](Cc1ccc(O)cc1)NC(=O)[C@H](CC(=O)O)NC(=O)[C@H](CO)NC(=O)[C@@H](NC(=O)[C@H](Cc1ccccc1)NC(=O)[C@@H](NC(=O)CNC(=O)[C@H](CCC(N)=O)NC(=O)[C@H](CO)NC(=O)[C@@H](N)Cc1c[nH]cn1)[C@@H](C)O)[C@@H](C)O)C(C)C)C(=O)N[C@@H](Cc1c[nH]c2ccccc12)C(=O)N[C@@H](CC(C)C)C(=O)N[C@@H](CC(C)C)C(=O)N[C@@H](CO)C(=O)N[C@H](C(=O)O)[C@@H](C)O)C(=O)O)C(=O)O)C(=O)O)C(=O)O [Example 67] (H-HSQGTFTSDYSRYLDLRRAADFVK([γGlu-γGlu-γGlu-γGlu-Pentanoyl])WLLST-OH) | 45 | 104 |
